Results as given in paper PMC2824085, “Identification of Novel Contributions to High-affinity Glycoprotein–Receptor Interactions using Engineered Ligands” (Journal of Molecular Biology, 2010).

Molecular target: T1, monomeric carbohydrate-recognition domain (CRD) from DC-SIGN (UniProt Q9NNX6 250-404)
T1 construct: DC-SIGN, carbohydrate-recognition domain; it calls the CRD monomeric; also called monomeric CRD; dendritic cell-specific intercellular adhesion molecule 3-grabbing nonintegrin CRD
T1 sequence (looked up): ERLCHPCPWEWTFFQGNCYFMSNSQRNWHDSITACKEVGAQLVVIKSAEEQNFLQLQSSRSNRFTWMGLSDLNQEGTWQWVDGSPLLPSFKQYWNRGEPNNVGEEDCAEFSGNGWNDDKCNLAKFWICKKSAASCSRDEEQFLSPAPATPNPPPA
Experiment: radioligand binding; competition: CRD of DC-SIGN immobilised on polystyrene wells, 125I-labeled mannose-BSA as reporter ligand, competing ligand titrated; KI = concentration for 50% inhibition
Conditions: both partners purified

Ki: 2400 nM
B1: soybean agglutinin (natural protein, UniProt P05046 33-285, looked up)
chain: AETVSFSWNKFVPKQPNMILQGDAIVTSSGKLQLNKVDENGTPKPSSLGRALYSTPIHIWDKETGSVASFAASFNFTFYAPDTKRLADGLAFFLAPIDTKPQTHAGYLGLFNENESGDQVVAVEFDTFRNSWDPPNPHIGINVNSIRSIKTTSWDLANNKVAKVLITYDASTSLLVASLVYPSQRTSNILSDVVDLKTSLPEWVRIGFSAATGLDIPGESHDVLSWSFASNLPHASSNIDPLDLTSFVLHEAI
modifications: a single, uniform Man9GlcNAc2 oligosaccharide on each subunit
notes: also called SBA; intact soybean agglutinin
